This passage reports self-cleavage results from the RNAGym collection of RNA variant scans (doi:10.7554/elife.90254).

The chains are these.
B1: LINE1-mini (parent)
chain: GGCAGAGCUCAACACAGCGUGGCAAAGUGGCUGUGGCUAGACUGCC

The source gives no read counts; variants with many changes may rest on few reads.

This data set covers variants of B1. Briefly: self-cleavage, relative activity (ratio to wild type); higher = more cleavage; in vitro, sequencing; the parent is a self-cleaving ribozyme.
Consider G5U C8A C13G G19A C45A, for which the self-cleavage turned out to be 0.05.
For G5U U9G C18G G22A A24C A41U, the self-cleavage was determined as 0.02.
For G5U C42U G44C C46U, the self-cleavage came out at 0.
Regarding G5U G33U G40A U43G, the self-cleavage stood at 0.07.
On to G5U G7U C18U G30C C37U, for which the self-cleavage came to 0.74.
On to G5U G17A C45A, for which the self-cleavage amounted to 0.04.
Consider G5U C8A A26C, for which the self-cleavage turned out to be 0.82.
On to G5U C10A A11G U28G G29C G30A, for which the self-cleavage turned out to be 0.01.
The same measure for G5U C15A A24U A25C U43G: 0.01; for G5U G21C A25C G29A: 0.05.
For G5U C8U A14U C23U G29C C31U G40C, the self-cleavage worked out at 0.04.
On to G5U U20A G35U, for which the self-cleavage turned out to be 0.04.
Take G5U G21U G27C: the self-cleavage turned out to be 0.23.
In the case of G5U U9C G22A C23A G36C C37G, the self-cleavage was found to be 0.01.
Turning to G5U G19A U38A G44A, the self-cleavage worked out at 0.11.
With G5U C8A A41U, the self-cleavage turned out to be 0.52.
Consider G5U G33U C37A, for which the self-cleavage worked out at 0.1.
With G5U C15G G29U C31A U34C, the self-cleavage came out at 0.
Consider G5U G35C G40A, for which the self-cleavage came out at 0.
For G5U C10G G17U, the self-cleavage was 0.01.
As to G5U C10U U34A U38A, the self-cleavage was 0.04.
G5U C31G U32G: the self-cleavage is 0.07.
G5U C31U U32C G44U C46A: the self-cleavage was found to be 0.02.
For the variant G5U C8G A16C C18A, the self-cleavage worked out at 0.06.
With G5U C15A G17C C42A, the self-cleavage was 0.06.
On to G5U G33U C42G C46G, for which the self-cleavage was 0.07.
Consider G5U U9G G21U, for which the self-cleavage amounted to 0.03.
With G5U C13U A24G C42A, the self-cleavage is 0.1.
G5U G7C U9G U38G G40C: the self-cleavage was 0.05.
Take G5U C13A A26C: the self-cleavage turned out to be 0.06.
Turning to G5U U9G C10A G17A G27A C46G, the self-cleavage is 0.04.
For G5U U9A U32A, the self-cleavage is 0.08.
The result for G5U C8A G29C G30A reads 0.4.
For the variant G5U C8A U9A G40C, the self-cleavage was 0.17.
In the case of G5U U20A G30A G44C, the self-cleavage came out at 0.07.
Regarding G5U C10G A24U A39G C42U U43A, the self-cleavage came to 0.02.
With G5U C10G A12C G40U, the self-cleavage came out at 0.03.
G5U C18A U20A: the self-cleavage turned out to be 0.03.
The result for G5U U9C C10A C31G reads 0.01; that for G5U G40C A41C, 0.
On to G5U C15G G17A G22C A41U C42U, for which the self-cleavage came to 0.03.
For G5U C10G C15G C23A C37G, the self-cleavage is 0.
For the variant G5U G27U C37G, the self-cleavage is 0.11.
Take G5U G19U G21A U28C C45U: the self-cleavage came to 0.06.
In the case of G5U C15G U28G A39U, the self-cleavage amounted to 0.02.
Turning to G5U C8A G33U U34A C37U, the self-cleavage turned out to be 0.21.
Take G5U U20C G33U: the self-cleavage turned out to be 0.05.
On to G5U U20C G33A, for which the self-cleavage is 0.02.
With G5U G21A A24U U32C G36U, the self-cleavage was 0.04.
For G5U C10A C31A A39G, the self-cleavage is 0.02.
For the variant G5U U9A A14C G33U G35C, the self-cleavage is 0.02.
For the variant G5U G7U U34A G35U G36A G40U, the self-cleavage amounted to 0.09.
Regarding G5U C10G C13A C37A, the self-cleavage was 0.01.
The result for G5U C13G U28A G29U G40U reads 0.05; that for G5U C13A G19C G27A U38A, 0.01.
In the case of G5U G17C G44A, the self-cleavage was 0.04.
The result for G5U C8G A12U reads 0.03; that for G5U C10A G19U G36C G44U C46A, 0; that for G5U U20A G22U U32C G36U, 0.03.
As to G5U C10U A39C C46G, the self-cleavage was 0.01.
Consider G5U C13G G30C G40C C42A, for which the self-cleavage is 0.08.
Regarding G5U U9C C10A, the self-cleavage came to 0.04.
G5U C8U A14U: the self-cleavage was found to be 0.49.
Regarding G5U G30U G36C, the self-cleavage was found to be 0.17.
With G5U G19U G22A A24C C31U, the self-cleavage was 0.04.
Regarding G5U C13A G36C, the self-cleavage turned out to be 0.04.
As to G5U C13A G22U, the self-cleavage was found to be 0.04.
As to G5U G22C C31A G36C, the self-cleavage was 0.05.
For G5U G27U G29A, the self-cleavage came out at 0.02.
With G5U G27U G33U G35C C46U, the self-cleavage amounted to 0.03.
The same measure for G5U U9A U28C G33U: 0.2; for G5U C10U U20C G30A: 0.04; for G5U G40U C45G: 0.02.
As to G5U C23G G29C, the self-cleavage worked out at 0.03.
The result for G5U U9G G19C A41C C42G reads 0.01.
As for G5U G27A C42A, the self-cleavage stood at 0.07.
For G5U C8U C23U G40A, the self-cleavage was found to be 0.03.
With G5U G21C G30C, the self-cleavage is 0.08.
In the case of G5U G7A C13A C18G C46G, the self-cleavage came out at 0.02.
Turning to G5U C8U C10A U43A C46U, the self-cleavage was found to be 0.
The same measure for G5U C13U C18U A25C U34A: 0.01; for G5U C10A C31U: 0; for G5U G7U G17C C23A: 0.03.
G5U C15U G21A A26C U32C G40A: the self-cleavage was 0.02.
The same measure for G5U G22U A25C: 0.02; for G5U C13U U20C A24G C46U: 0.03.
As to G5U G22A G27A, the self-cleavage was found to be 0.03.
For the variant G5U G22A G27C, the self-cleavage amounted to 0.03.
The result for G5U C18U A26U G27U reads 0.14; that for G5U U9C G21U A26G A41C, 0.01.
The same measure for G5U G19U G29A G44A: 0.04; for G5U G27C U32G A41C: 0.03.
The same measure for G5U C18A C31U G35A C42U: 0.02; for G5U C8A G19A: 0.26.
For G5U C15G A24C C37G, the self-cleavage came to 0.02.
With G5U G21U A24G, the self-cleavage worked out at 0.03.
The same measure for G5U C13A C18G: 0.54; for G5U C15U C18A C37U: 0.02; for G5U C15A G22U G36A A39U C46G: 0.02.
As to G5U C10G G21U C42A, the self-cleavage stood at 0.02.
G5U G19A U20G C37U: the self-cleavage worked out at 0.02.
In the case of G5U C10A A39U C46U, the self-cleavage stood at 0.03.
Consider G5U U9G C10G G19C, for which the self-cleavage was 0.01.
For G5U G36C G44U, the self-cleavage was determined as 0.02.
Turning to G5U C8A C13G G35A G36A, the self-cleavage came out at 0.3.
For G5U C8A A39G, the self-cleavage is 0.11.
Regarding G5U G7U C8A G29A U38A, the self-cleavage turned out to be 0.25.
Regarding G5U C18A C37A, the self-cleavage stood at 0.03.
The same measure for G5U C13U G19C A25U: 0.07; for G5U G17C C46U: 0.06; for G5U U9C C18G: 0.01.
G5U G17U G29C G35C: the self-cleavage amounted to 0.03.
On to G5U C37U C46U, for which the self-cleavage stood at 0.02.
On to G5U U9A C31U C46U, for which the self-cleavage is 0.02.
For the variant G5U G33A G35U C46U, the self-cleavage was found to be 0.09.
Regarding G5U G27A U38G C46G, the self-cleavage was found to be 0.03.
G5U C15A A41G U43G: the self-cleavage stood at 0.09.
On to G5U C10A U43C, for which the self-cleavage is 0.04.
As to G5U C31U G36C, the self-cleavage came to 0.03.
Consider G5U U9A C13U A16C, for which the self-cleavage turned out to be 0.06.
The same measure for G5U G30A A41U: 0.04; for G5U U9A C23U: 0.04; for G5U C8A C15G G35U C45U: 0.44.
As to G5U C15U C18A U28C G40C, the self-cleavage is 0.08.
For the variant G5U C42A C45A, the self-cleavage amounted to 0.25.
Regarding G5U C10A A39G, the self-cleavage was found to be 0.01.
Take G5U G7C G27C C37G C46A: the self-cleavage was 0.02.
For the variant G5U G21A A26G, the self-cleavage came to 0.19.
With G5U C8U G29U, the self-cleavage stood at 0.36.
G5U C18G G22A U32A: the self-cleavage came out at 0.05.
Consider G5U C13U A25U C31U G44C, for which the self-cleavage amounted to 0.07.
G5U C8G C23G: the self-cleavage turned out to be 0.13.
For G5U C13U G22U C23G A39C U43C, the self-cleavage turned out to be 0.01.
The same measure for G5U C18U U20G A26U G27C A39U C46A: 0.02; for G5U G19C C31G C37A: 0.03; for G5U C13A G22U G36U A39G: 0.03.
For the variant G5U U9A G29A G33C, the self-cleavage came out at 0.11.
With G5U C10U G27C G29U, the self-cleavage amounted to 0.04.
The result for G5U C15U G17U G36A A41C reads 0.05; that for G5U U9C G29C, 0.05.
Take G5U G17U G21C: the self-cleavage is 0.1.
The same measure for G5U C13A C23A G29A C46U: 0.11.
In the case of G5U U20C U32C, the self-cleavage stood at 0.05.
For the variant G5U C18A A24C C42G, the self-cleavage is 0.01.
Regarding G5U C10G U34C C46G, the self-cleavage came out at 0.01.
As for G5U C15U U38A, the self-cleavage was found to be 0.1.
The result for G5U U9G G27A G33A C46A reads 0.07; that for G5U U9A C18U, 0.07; that for G5U C10U G27C, 0.04.
The same measure for G5U U9G A11U G17A: 0.01; for G5U C13U C46A: 0.18.
Consider G5U C10U C15A G29A U32C U43G, for which the self-cleavage worked out at 0.01.
G5U U9G G36A: the self-cleavage came to 0.35.
With G5U G21U C46A, the self-cleavage worked out at 0.05.
As to G5U C10A A24C A26G, the self-cleavage is 0.
For the variant G5U G19U C23G G30U, the self-cleavage was determined as 0.06.
G5U C15A C23A: the self-cleavage was determined as 0.09.
For the variant G5U G27U U32G, the self-cleavage stood at 0.02.
The result for G5U C13A G29U A39U C42G reads 0.01; that for G5U G36A C37A, 0.23; that for G5U C42A U43A, 0.07.
As for G5U C10A C13A, the self-cleavage is 0.02.
On to G5U G22U U28A A41G G44A, for which the self-cleavage was found to be 0.04.
The result for G5U C10U G36U reads 0.01; that for G5U G19A C23G, 0.03.
Regarding G5U U20C C31A, the self-cleavage was 0.02.
With G5U C13A C15G U34C, the self-cleavage was determined as 0.05.
